Several values for one entry are separate records, joined by “and”; a condition that tells them apart may be missing. Equal entries are not always repeated.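 Dose response: 5 concentrations. Exposure: 48 h. Format: 96-well plates. Endpoint: linear interpolation; highest concentration if not reached. At the GI50, growth is halved. TGI: concentration producing complete growth inhibition.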 Numbered stars: 1 amine (or outer) side, 2 acyl side, 3 side chain; on linkers, the order of the positions; unused ones are H or OH. Peptide text beside a SMILES is read from it. * marks the point of attachment. γGlu = O=C(O)[CH](CCC(=O)[*:2])N[*:1]; NHOH = ON*
Tested on: NCI-H322M lung
Assay: NCI tumour cell line growth inhibition, 48 h

Structure (SMILES) | GI50 [µM] | TGI
CCN(Cc1ccccc1)c1ccc(/C=C2\COc3ccccc3C2=O)cc1 | > 1000 | > 1000 µM
c1ccc(C/C(=N\Nc2nc3ccccc3[nH]2)c2ccccn2)cc1 | – | 0.954 µM
COc1cccc2c1C(=O)c1c(O)c3c(c(O)c1C2=O)C[C@@](O)(/C(C)=N/NC(=O)c1cccc([N+](=O)[O-])c1)C[C@@H]3OC1CC(N)C(O)C(C)O1 (stereo not given in full) | 1.21 | 14.5 µM
c1ccc(CCCN2C3CCC2CN(CCOC(c2ccccc2)c2ccccc2)C3)cc1 | – | 25.3 µM
NC(CCC(=O)NC(CCC(=O)NO)C(=O)NCC(=O)O)C(=O)O (stereo not given) (γGlu-Glu(NHOH)-Gly-OH; configuration not given here) | – | > 100 µM
N#C/C=C(/NC(=O)Nc1ccccc1)N1CCCC1 | – | > 100 µM
Cc1cnoc1/N=C1\C=C(Nc2oncc2C)C(=O)c2ccccc21 | – | > 100 µM
CC1OC1C(=O)P(=O)(O)O (stereo not given) | – | > 100 µM
COc1cc(OC)c(OC)cc1/C=C/c1ccccn1 | – | > 10 µM
O=C(CN1CCCCC1)c1ccc2[nH]c(=O)oc2c1 | – | > 100 µM
C#CCOC(=O)C=[N+]=[N-] | – | > 10 µM
O=C(Nc1ccc(Cl)cc1)c1cc(S(=O)(=O)Nc2nc3ncccc3[nH]2)c(SSc2cc(Cl)c(C(=O)Nc3ccc(Cl)cc3)cc2S(=O)(=O)Nc2nc3ncccc3[nH]2)cc1Cl | – | > 100 µM
O=NN(CC1(O)OCC(O)C(O)C1O)C(Cc1c[nH]c2ccccc12)C(=O)O (stereo not given) | – | > 100 µM
CCCCOC(=O)Nc1ccc(S(=O)(=O)Nc2c(Cl)cccc2Cl)cc1 | – | > 100 µM
CS(=O)(=O)N(CCC#N)c1ccc(/C=C2\N=C(c3ccccc3Cl)OC2=O)cc1 | – | > 100 µM
CCN(CC)c1c(-c2c(OC(C)C)c(=O)c2=O)c(=O)n2ccsc2c1OC(C)=O | – | > 100 µM
COP(=O)(OC)[C@@](O)(c1ccccc1)[C@@H](O)[C@H](O)c1ccccc1 | – | > 100 µM
NC(=O)N/N=C(\Cc1cc(=O)oc2cc(O)ccc12)C(=O)Nc1ccccc1C(N)=O | – | > 100 µM
O=[N+]([O-])C(/C(Cl)=C(/Cl)N1CCOCC1)=C1\Nc2ccccc2O1 | – | > 100 µM
O=c1oc2ccccc2cc1P(=O)(O)O | – | > 100 µM
CCN1CC2=C(OC(N)=C(C#N)C2c2ccc(Cl)cc2)/C(=C/c2ccc(Cl)cc2)C1 (stereo not given) | – | > 100 µM
Cc1cc2c(cc1Cl)SC(=Nc1ccc(Cl)cc1)N(S(=O)(=O)c1ccc(Br)s1)S2(=O)=O | 20.5 | 51.8 µM
CCOc1ccc2c(c1)[n+]([O-])c(C(N)=O)c(N)[n+]2[O-] | – | > 100 µM
Cc1c2ccccc2c(=O)n2c(-c3ccccn3)cccc12 | – | > 100 µM
COc1cc(OC)c(-n2[nH]c(=O)n(C)c2=O)c(OC)c1 | – | > 100 µM
CSC(=Nc1ccccc1)c1c(C)[nH]n(-c2ccccc2)c1=O | – | > 100 µM

Structure (SMILES) | GI50 [µM] | TGI
O=[N+]([O-])C1=Cc2c(O)ccc(O)c2C2OC=CC12 (stereo not given) | – | 59.7 µM
CCCCCOC(=O)c1c(C)[nH]c(/C=C2\N=C(c3ccc[nH]3)C=C2OC)c1C | 0.0709 | 3.48 µM
CCOC(=O)c1ccc(-c2onc(C)c2Br)[nH]1 | – | > 100 µM
Cc1ccccc1NC(=O)C(=O)C(C1OC(=O)c2ccccc21)[N+](=O)[O-] (stereo not given) | – | > 100 µM
CCN(CC)CCN1C(=O)C2C3C(C)=CC(OC(C)=O)(CC3C)C2C1=O (stereo not given) | > 100 | > 100 µM
COc1ccc(CC(C)NCC(O)c2ccc(O)c(NC=O)c2)cc1 (stereo not given) | – | > 100 µM
CCOC(=O)c1nc(SC)sc1NC(=O)c1ccc(OC)cc1 | – | > 100 µM
COC(=O)c1sc2nc(Nc3ccccc3)c(=Nc3ccccc3)sc2c1C | – | > 100 µM
CC(C)(C)CNCCO | – | > 100 µM
COC1C(OC(=O)/C=C/C=C/C=C/C=C/C(=O)O)CCC2(CO2)C1C1(C)OC1CC=C(C)C (stereo not given) | 0.541 | > 100 µM
COc1ccc(-c2cc(=O)c3c(C)ccnc3[nH]2)cc1 | – | 90.4 µM
O=C(O)c1c2c(c(O)c3c1CN(C1CCCCC1)CO3)OCN(C1CCCCC1)C2 | – | > 100 µM
Cc1cccc(-c2cc(=O)c3cccnc3[nH]2)c1 | – | > 100 µM
C[N+](C)(N)Cc1nc(-c2ccc(Cl)cc2)no1 | – | > 100 µM
COC(=O)[C@H](Cc1ccccc1)NC(=O)N(CCN(CCC#N)C(=O)N[C@H](C(=O)OC)C(C)C)c1ccccc1 | – | > 100 µM
Clc1ccc2c(NCCCCNc3nc(N4CCOCC4)nc4ccccc34)ccnc2c1 | 3.69 | 14.5 µM
O=C(O)c1ccccc1NS(=O)(=O)c1ccc(Cl)cc1 | – | > 100 µM
OC(c1ccccc1)c1c(-c2ccccc2)[nH]c(-c2ccccc2)c1C(O)c1ccccc1 (stereo not given) | – | 24.3 µM
O=S(=O)(c1ccccc1)N1CCC1c1ccccc1 (stereo not given) | – | > 100 µM
Nc1nc(N)c2cc(-c3cc4ccccc4[nH]3)ccc2n1 | – | > 100 µM
CCCCOc1ccc(/C=C/C2=[N+](CCO)CCO2)cc1 | – | > 100 µM
Cc1cc(C)c2c(c1)CSCc1cc(C)cc(C)c1-2 | – | > 100 µM
CCOc1cc2c(cc1OC)c[n+](C)c1c3cc(OC)c(OC)cc3ccc21 | – | > 100 µM
CCN(CC)C1=Nc2ccccc2-n2ccnc2C1 | – | > 100 µM
Clc1cccc(-c2cc(-c3ccc4c(c3)OCCO4)[nH]n2)c1 | 11.9 | 47.3 µM
CN(C)CCN1C(=O)c2cccc3cc(N)cc(c23)C1=O | – | 29.8 µM and 20.5 µM
